Source: publication PMC6919601, “Identification of Plasmodium dipeptidyl aminopeptidase allosteric inhibitors by high throughput screening” (PLoS ONE, 2019)
The campaign covered roughly 110,000 compounds. About 230 (0.21%) showed an effect of 50% or more. The list shows a part of the results.

target: DPAP1 (Plasmodium falciparum, UniProt Q8IIJ9); experiment: primary screen, percent inhibition; read by cleavage of a fluorogenic dipeptide substrate; higher = more effect of the substance; parameters: species or system P. falciparum D10 trophozoite lysates; single well
Sequence (Q8IIJ9 whole entry, looked up): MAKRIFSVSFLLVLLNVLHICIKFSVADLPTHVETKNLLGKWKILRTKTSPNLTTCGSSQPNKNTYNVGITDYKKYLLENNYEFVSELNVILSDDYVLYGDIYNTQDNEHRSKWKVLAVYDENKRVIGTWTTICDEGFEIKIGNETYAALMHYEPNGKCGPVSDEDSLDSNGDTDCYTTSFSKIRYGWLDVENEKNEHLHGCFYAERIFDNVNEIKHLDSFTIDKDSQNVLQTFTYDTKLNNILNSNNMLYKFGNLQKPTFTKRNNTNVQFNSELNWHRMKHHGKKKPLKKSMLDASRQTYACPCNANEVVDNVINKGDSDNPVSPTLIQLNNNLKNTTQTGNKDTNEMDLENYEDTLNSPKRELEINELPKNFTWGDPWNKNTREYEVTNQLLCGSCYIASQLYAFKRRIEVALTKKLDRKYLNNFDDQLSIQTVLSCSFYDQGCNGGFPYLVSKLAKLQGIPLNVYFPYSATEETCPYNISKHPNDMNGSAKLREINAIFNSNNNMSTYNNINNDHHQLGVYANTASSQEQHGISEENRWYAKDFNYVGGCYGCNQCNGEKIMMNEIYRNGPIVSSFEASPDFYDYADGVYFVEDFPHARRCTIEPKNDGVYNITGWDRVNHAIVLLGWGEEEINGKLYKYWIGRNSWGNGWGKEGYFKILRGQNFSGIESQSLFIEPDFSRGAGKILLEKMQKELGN
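Also: 30 min substrate incubation versus DMSO and 10 µM JCP410 controls.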

Row | Structure (SMILES) | % Inhibition @ 10 uM [%]
1 | N#CCCC1(CCC#N)CCCC(CCC#N)(CCC#N)C1=O | 2.79
2 | Fc1cccc(F)c1CN1CCN(c2cccc(Cl)c2)CC1 | 3.48
3 | O=C(C(Cc1ccccc1)n1cccc1)N1CCCCCC1 (centres unmarked) | -4.21
4 | O=C(c1ccc(Cl)c(Cl)c1)N1CCN(c2ccccc2)CC1 | 1.88
5 | CN1CCC(NCC2CCCO2)CC1 (centres unmarked) | 2.98
6 | Sc1nnc(CN2CCSCC2)n1-c1ccccc1Cl | 0.219
7 | CC(C)Cc1ccc(C#N)c(SCC(=O)O)n1 | -3.63
8 | O=C1C(O)=C(c2ccc([N+](=O)[O-])cc2)C(=O)c2ccccc21 | -2.42
9 | COc1ccc(C)cc1NCc1ccncc1 | -1.5
10 | Cc1oc2cc(OCC(=O)O)ccc2c(=O)c1-c1ccc(Br)cc1 | 3.93
11 | CC(C)C[C@H](NS(=O)(=O)c1ccc2c(c1)CN(C(=O)C(F)(F)F)CC2)C(=O)NCC#N | 1.52
12 | COc1ccc(/C=C(\C#N)c2nc3ccccc3s2)c(OC)c1 | 2.45
13 | CCC1CCCCN1C(=O)Cn1c(=O)n(CCCC(=O)NCc2ccco2)c(=O)c2sccc21 (centres unmarked) | -0.591
14 | COc1ccc(OC)c(N2C(=O)CC(N3CCN(Cc4ccccc4)CC3)C2=O)c1 (centres unmarked) | -1.52
15 | COc1ccc(C(=O)C2=C(O)C(=O)N(CCCN3CCOCC3)C2c2ccc(C(C)C)cc2)cc1 (centres unmarked) | -1.25
16 | Cc1nn(Cc2cccc3ccccc23)c(C)c1NC(=O)c1ccc2c(c1)OCO2 | -2.74
17 | CCN(CC)CCNc1nc2c(c(=O)n(C)c(=O)n2C)n1C(C)c1ccccc1 (centres unmarked) | -7.09
18 | Cc1nc2c(C(=O)NC3CCCCC3)cnn2c(C)c1Cc1ccccc1Cl | 7.37
19 | CCC(C)NCc1c(C(=O)O)n(Cc2ccc(F)cc2)c2cc(C)ccc12 (centres unmarked) | 2.6
20 | O=C(O)Cc1ccc(NC(=O)c2cccc3ccccc23)cc1 | -0.0217
21 | Oc1ccnc2cc(N3CCCCCC3)c(F)cc12 | -3.2
22 | CC(Sc1nnc(COc2ccc(Br)cc2)n1Cc1ccccc1)C(=O)O (centres unmarked) | 0.00706

Row | Structure (SMILES) | % Inhibition @ 10 uM [%]
23 | COc1ccc(N(CC(=O)Nc2ccc(C)c(C)c2)S(C)(=O)=O)cc1Cl | -5.27
24 | Oc1ccc(-c2cn3c4ccccc4n(CCN4CCOCC4)c3n2)cc1 | -2.99
25 | CCCCN1C(=O)C2Cc3c([nH]c4ccccc34)C(c3cccc(Cl)c3Cl)N2C1=O (centres unmarked) | 7.92
26 | Cc1ccc(CN2CCc3nc(SCC(=O)NCCc4ccccc4)nc(O)c3C2)cc1 | 9.86
27 | CCn1c(N/C(O)=C/C(O)(C(F)(F)F)C(F)(F)F)nc2ccccc21 | 2.57
28 | CCc1c(C#N)c(=O)[nH]c(=O)n1-c1ccccc1 | -0.68
29 | Cc1ccc(C2c3sc(O)nc3SC3C4CC(C5C(=O)N(C(C(=O)O)C(C)C)C(=O)C45)C23)cc1 (centres unmarked) | -3.52
30 | C=CCN(Cc1nc(-c2ccc(OC)c(OC)c2)no1)C(=O)NCCC | 3.27
31 | CCC(C)N(CCNS(=O)(=O)c1ccc(-c2ccc(O)nn2)s1)Cc1cccs1 (centres unmarked) | 0.0489
32 | CCC(=O)Nc1ccc(S(=O)(=O)NC(C)(C)C)cc1 | 1.27
33 | COc1ccc(/C=C2\Sc3ccccc3C2=O)c(OC)c1 | -2.87
34 | C=C(C(=C)S(=O)(=O)c1ccc(Cl)cc1)S(=O)(=O)c1ccc(Cl)cc1 | -3.09
35 | Nc1ccc2oc(-c3ccc(O)cc3)nc2c1 | -4.18
36 | CCCC1=C(C(=O)OCC)C(c2cccc(Br)c2)C(C#N)=C(N)O1 (centres unmarked) | 1.48
37 | CC1(C)N=C(c2ccc(Br)cc2)C(=O)N1 | 6.28
38 | CC1=CC(=C2C(=O)NC(=O)NC2=O)C=C(C)N1CCO | 3.66
39 | COc1ccc2c(c1)n1nnnc1c1nnnn21 | -2.99
40 | COc1ccc(C(=O)CC2(O)C(=O)N(Cc3cccc4ccccc34)c3ccccc32)c(OC)c1 (centres unmarked) | -0.992
41 | COc1ccc(N2C(=O)c3c(C)nc4ccccc4c3C2=O)cn1 | -4.86
42 | CC(Cc1ccccc1)NC(=O)C1CCCNC1=O (centres unmarked) | -0.28
43 | Cc1ccc(S(=O)(=O)N2CCN(C(=O)CSc3nnc(C)c(O)n3)C2c2ccccc2)cc1 (centres unmarked) | -4.73
44 | Cc1oncc1NC(=O)[C@H](CC(C)C)NC(=O)c1ccc(-c2csc(Nc3ccncc3)n2)cc1 | -1.41

Row | Structure (SMILES) | % Inhibition @ 10 uM [%]
45 | C=C(C)[C@@H]1CC=C(CN2CCN(CCO)CC2)CC1 | -6
46 | COCCNC(=O)CCCn1c(SCC(N)=O)nc2c(sc3ccccc32)c1=O | 8.28
47 | COc1cc(/C=C/c2nc(C#N)c(NCC(C)C)o2)cc(OC)c1OC | -0.808
48 | COC(=O)c1ccccc1-n1c(CCC(=O)O)ccc1-c1ccc(F)cc1 | -5.85
49 | O=C(Nc1ccccc1C(=O)O)c1ccccc1 | -3.65
50 | Cn1nc(C(=O)NCc2ccccc2Cl)cc1C(=O)O | -1.65
51 | CCc1ccc(C2CC(c3ccccc3)=NN2C(=O)CCCC(=O)O)cc1 (centres unmarked) | -1.33
52 | CN(Cc1ccccc1)S(=O)(=O)c1nnc(NC(=O)CCc2ccccc2)s1 | -6.65
53 | CNS(=O)(=O)c1cn(CC(=O)Nc2ccc(C)cn2)cc1S(=O)(=O)NC | -6.88
54 | Cc1ccc(-c2nc(CSCC(=O)Nc3cc(C)on3)c(C)o2)cc1 | -2.14
55 | CC(C(=O)NCCC(=O)O)N1C(=O)c2ccccc2C1=O (centres unmarked) | -1.81
56 | Cc1cc2nc(CSc3n[nH]c(N)n3)cc(=O)n2o1 | -2.46
57 | COc1ccc(/C=C/C(=O)O)cc1S(=O)(=O)N1CCOCC1 | 1.44
58 | Cc1oc2ncnc(N3CCN(Cc4ccccc4)CC3)c2c1C(=O)O | 1.15
59 | CCNc1nc(F)cc(F)n1 | 2.79
60 | CCCCCC(=O)Nc1ccc(C(C)=O)cc1 | -4.02
61 | CNC(=O)NC1CCCc2ccccc21 (centres unmarked) | -1.74
62 | CC1CCN(C(=O)c2cccc3c2SCCC3=O)CC1 | -8.65
63 | O=C(Cn1c2ccccc2c2cnnc(O)c21)N1CCC2(CC1)OCCO2 | -4.01
64 | CCOc1ccccc1C(=O)Nc1cc(OC)c(Cl)cc1OC | -1.07
65 | COc1ccc2c(c1)c1c(c(=O)n(Cc3ccccc3)c(=O)n1CC(=O)N1CCCC1)n2C | 10.2
